Measurements published in ChEMBL document CHEMBL4888484, “Replenishing the malaria drug discovery pipeline: Screening and hit evaluation of the MMV Hit Generation Library 1 (HGL1) against asexual blood stage Plasmodium falciparum ,using a nano luciferase reporter read-out” (2022).
About 540 (0.36%) of roughly 150,000 compounds showed an effect of 50% or more. The list shows a part of the results.

The compounds below were run on Plasmodium falciparum (assay: Primary screen in NF54 nanoGlo assay, in single point, at 2uM, 72h; a lower Z score goes with more inhibition). Conditions: timepoint 72 hour.
Type: functional, Erythrocyte
In the case of `Cc1c(C(=O)NC[C@H]2CCC(C)(C)O2)cnn1C1CCCC1`, the “% Inhibition” value is reported as -4% and the Z score is reported as 0.72. `Cc1noc(C)c1CN(C)C(=O)[C@H]1CCC(=O)NC1` was tested, and the “% Inhibition” value was -8% and the Z score was 0.69. With `OC[C@H]1CN(Cc2ccccc2C(F)(F)F)C[C@H]1CN1CCCCC1` the “% Inhibition” value was -13% and the Z score was 1.22. In the case of `CN(C)[C@H]1[C@H](NC(=O)c2cc(F)cc(Cl)c2)[C@@H]2CCO[C@@H]21`, the “% Inhibition” value is reported as -4% and the Z score is reported as 0.6. With `C[C@@H]1CN(c2ccnc(C(=O)O)c2)C[C@]1(C)O` the “% Inhibition” value was -14% and the Z score was 1.88. For `CCCCS(=O)(=O)N[C@H]1CCN(C2CCCC2)C1`, the “% Inhibition” value was -11% and the Z score was 1.33. In the case of `C=CCOc1ccccc1CN1CC2(C)CC1CC(C)(C)C2` (centres undefined), the “% Inhibition” value is reported as -15% and the Z score is reported as 2.09. With `O=C(Nc1ccnn1Cc1cccs1)c1cccc2ccccc12` the “% Inhibition” value was 2% and the Z score was -0.27. With `COc1ccc(OC)c(CNc2nccc(-n3nc(C)cc3C)n2)c1` the “% Inhibition” value was -3% and the Z score was 0.51. For `C[C@@H](C(=O)NS(=O)(=O)CC1CCCC1)c1ccccc1`, the “% Inhibition” value was -19% and the Z score was 1.86. For `Cc1ccc2nc(N3CCN(C(=O)C(C)(C)C)CC3)c(-c3noc(-c4ccccc4)n3)cc2c1`, the “% Inhibition” value was -30% and the Z score was 5.56. With `COc1ccc(NC(=O)CN2CCC[C@H](C)C2)cc1S(=O)(=O)N1CCCCC1` the “% Inhibition” value was -14% and the Z score was 1.68. `Cc1ncoc1CNC(=O)NC[C@H](C)C1CC1` was tested, and the “% Inhibition” value was -8% and the Z score was 1.11. With `Cc1nonc1CC(=O)NCCc1nccs1` the “% Inhibition” value was -6% and the Z score was 1.01. With `COc1ccc(CN(C)C(=O)c2ccc(N(C)C)cc2)c(OC)c1` the “% Inhibition” value was -20% and the Z score was 3.75. For `Cc1ccc(OCC(=O)N2CCCN(C(=O)COc3ccc(C)cc3)CC2)cc1`, the “% Inhibition” value was -9% and the Z score was 0.99. `Cc1cc(C)cc(OC(=O)c2cccc(N3C(=O)C4CCC(c5ccccc5)CC4C3=O)c2)c1` (centres undefined) was tested, and the “% Inhibition” value was 4% and the Z score was -0.42. For `CN(Cc1cc[nH]n1)C(=O)NCCCOC1CCCC1`, the “% Inhibition” value was 0% and the Z score was 0.04. For `Brc1cc2c(c(CN3CCCCC3)c1)O[C@@H](c1ccccc1)OC2`, the “% Inhibition” value was 12% and the Z score was -1.83. With `Cc1ccsc1CN(C(=O)[C@H]1CC(=O)N(C2CCCC2)C1)C(C)C` the “% Inhibition” value was -6% and the Z score was 0.85. In the case of `Cc1ccc(N2CCC(N[C@@H]3CC[C@@H]3NC(=O)Cc3ccccc3F)CC2)cc1`, the “% Inhibition” value is reported as -4% and the Z score is reported as 0.71. `O=C(NCc1cccnc1-c1ccncc1)c1ccncc1` was tested, and the “% Inhibition” value was -3% and the Z score was 0.31. In the case of `O=C(Cn1c(=O)nc(-c2ccccc2F)c2cc(Cl)ccc21)NCCCc1ccccc1`, the “% Inhibition” value is reported as -11% and the Z score is reported as 1.12. `CNC(=NCc1c(F)c(F)cc(F)c1F)NCc1ccco1` was tested, and the “% Inhibition” value was -8% and the Z score was 1.49. For `CCC(CO)NC(=O)NC(C)c1ccc(-c2cccnc2)cc1` (centres undefined), the “% Inhibition” value was 8% and the Z score was -1.41. `C[C@H](Oc1ccc(F)cc1F)C(=O)NCc1nnc(N)s1` was tested, and the “% Inhibition” value was -2% and the Z score was 0.49. `CCc1nnc(CNC(=O)c2cccc(-c3ncc(F)c(N(C)C)n3)c2)o1` was tested, and the “% Inhibition” value was -10% and the Z score was 1.12. With `O=C(Nc1cc[nH]n1)c1ccc2[nH]cnc2c1` the “% Inhibition” value was -7% and the Z score was 1.32. `CC(=O)N1C[C@@H](O)C[C@@H]1C(=O)NC(C)(C(N)=O)c1cccc(Cl)c1` (some centres undefined) was tested, and the “% Inhibition” value was -15% and the Z score was 1.95. With `O=C(CO)N1CC[C@]23C(=O)N(Cc4cn(nn4)CCCOc4cccc(c4)[C@@H]12)c1ccccc13` the “% Inhibition” value was -7% and the Z score was 0.97. In the case of `COc1ccc(C(=O)N(Cc2cccc(Br)c2)[C@H]2CCS(=O)(=O)C2)cc1Cl`, the “% Inhibition” value is reported as -11% and the Z score is reported as 0.96. `N[C@@H](CN1CCCC1)c1ccc(F)cc1` was tested, and the “% Inhibition” value was 10% and the Z score was -1.88. With `Fc1ccc2oc(CN3CCCC4(C3)OCCO4)cc2c1` the “% Inhibition” value was -1% and the Z score was 0.13. `C=C(C)CC1NC2CC(C)(C)C1c1c(Br)ccc(Br)c12` (centres undefined) was tested, and the “% Inhibition” value was -1% and the Z score was 0.14. In the case of `CCOc1ccc2ncc(C#N)c(N3CCC4(CC3)OCCO4)c2c1`, the “% Inhibition” value is reported as -7% and the Z score is reported as 0.97. `Cn1nc(Cc2ccccc2)n(C2CCN(Cc3cccs3)CC2)c1=O` was tested, and the “% Inhibition” value was -1% and the Z score was 0.16. With `Cc1nccn1[C@@H](C)C(=O)NCCCn1ccnc1` the “% Inhibition” value was 3% and the Z score was -0.55. With `Fc1ccc(CN2CCCn3nc(CN4CC[C@H](F)C4)cc3C2)cc1Cl` the “% Inhibition” value was -3% and the Z score was 0.43. In the case of `COc1ccc(CNC(=O)Nc2ccc3c(c2)N(C(=O)c2ccccc2)CCC3)cc1OC`, the “% Inhibition” value is reported as 21% and the Z score is reported as -4.61. With `O=C(NCc1sncc1Br)NCC1CC1` the “% Inhibition” value was -5% and the Z score was 0.8. In the case of `CS(=O)(=O)Nc1cccc(C(F)(F)F)n1`, the “% Inhibition” value is reported as -7% and the Z score is reported as 1.26. For `Cc1ccc(CN2CCNC(=O)[C@@H]2CC(=O)NCc2n[nH]c3c2CCC3)o1`, the “% Inhibition” value was -3% and the Z score was 0.57.
